Experimental data as given in PubChem BioAssay (NCATS).
Values joined by “and” are separate entries in the source; they are usually repeats but may differ in a detail not shown here. Equal entries are not always repeated. The shares of active, inactive and inconclusive entries below differ from those in the screen. Where the call is inconclusive, the potency comes from a doubtful curve fit. Active and inactive are the calls of the source. Calls follow the shape of the dose curve; as a rule, active = well fitted inhibition curve with a large enough effect; inconclusive = small, poorly fitted or top-dose-only effect; inactive = flat fitted curve, though single readings scatter.

Tested on: KB-3-1
Experiment: Cytotoxic Profiling of Annotated Libraries Using Quantitative High-Throughput Screening (AID 1296008); also: nearly all actives have a fitted effect of over 60% in size
Details: Five cell lines viability, CellTiter-Glo ATP luminescence, 48-72 h; max response: stronger effect = lower value
Procedure, shortened: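 Compounds were pin-transferred onto cells and incubated 48 or 72 hr at 37 degree Celsius, 95% humidity. CellTiter-Glo was added, plates sat 10 min at room temperature, then ATP-coupled luminescence was imaged as the viability read-out.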
% is scaled to controls: 0 for no effect and ±100 for the full control effect; potency is read from the fitted curve at half-maximal effect; tags tell the direction and shape of the fitted curve.

Row | SMILES | Potency | max response
1 | CC(C)(O)CCc1ccc(OCc2cc(-c3cccc(OC(F)F)c3)c3ncccc3c2)cc1 | inconclusive: 23.1 µM [inhibitor, single point] | 
2 | CC(C)(N)c1ccc(-c2nc3ccccc3nc2-c2ccccc2)cc1 | active: 1.87 µM and inconclusive: 20.6 µM [inhibitor, single point] | 
3 | COc1ccc2c(OCc3nnc4ccc(-c5ccccc5)nn34)ccnc2c1 |  | inactive: -1.11% and inactive: 9.78%
4 | O=C(CC12CC3CC(CC(C3)C1)C2)Nc1cccc2nc(NCCNCCO)ccc12 |  | inactive: -12.7%
5 | NC(=O)N1CCC(CC(=O)N2CCC([C@H]3c4ncc(Br)cc4CCc4cc(Cl)cc(Br)c43)CC2)CC1 | inconclusive: 18.7 µM [inhibitor, partial curve] | 
6 | Cc1cc(-c2ncc(CC(=O)Nc3ccc(-c4cnccn4)cn3)cc2C)ccn1 | inconclusive: 4.69 µM [inhibitor, full curve] and inconclusive: 6.51 µM [inhibitor, partial curve] | 
7 | CS(=O)(=O)Oc1ccc2c(NC(N)=O)c(C(=O)c3ccc(Cl)cc3Cl)oc2c1 |  | inactive: 0.867%
8 | CCC(=O)O[C@]1(C(=O)CCl)[C@@H](C)C[C@H]2[C@@H]3CCC4=CC(=O)C=C[C@]4(C)[C@@]3(F)[C@@H](O)C[C@@]21C |  | inactive: -5.78% and inactive: 1.04%
9 | O=C(Nc1ncc(SCCN2CCCC2)s1)[C@]1(c2ccc(S(=O)(=O)C3CC3)cc2)C[C@@H]1C1CCCCC1 | inconclusive: 26.4 µM [inhibitor, single point] | 
10 | NC(=NCCCCCCN=C(N)N=C(N)Nc1ccc(Cl)cc1)N=C(N)Nc1ccc(Cl)cc1 | active: 8.33 µM | 
11 | N#CC(c1ccc(Cl)cc1)c1c(Cl)cc(-n2ncc(=O)[nH]c2=O)cc1Cl (stereo not given) | inconclusive: 13 µM [inhibitor, single point] | 
12 | Cc1cc(OCCCS(C)(=O)=O)cc(C)c1-c1cccc(COc2ccc3c(c2)OC[C@H]3CC(=O)O)c1 | inconclusive: 26.4 µM [inhibitor, single point] | 
13 | CCc1nc(-c2cccc(C)c2)c(-c2ccnc(NC(=O)c3ccccc3)c2)s1 | inconclusive: 33.2 µM [inhibitor, partial curve, poor fit] | 
14 | CC(=O)c1c(C)c2cnc(Nc3ccc(N4CCNCC4)cn3)nc2n(C2CCCC2)c1=O | inconclusive: 37.2 µM [inhibitor, single point] | 
15 | CN1CCN(c2cc(C(=O)Nc3ccc4c(c3)-c3c(c(C(N)=O)nn3-c3ccc(F)cc3)CC4)c(Cl)cn2)CC1 | inconclusive: 33.2 µM [inhibitor, single point] | 
16 | CC[C@H]1OC(=O)[C@H](C)[C@@H](O[C@H]2C[C@@](C)(OC)[C@@H](O)[C@H](C)O2)[C@H](C)[C@@H](O[C@@H]2O[C@@H](C)C[C@H](N(C)C)[C@@H]2O)[C@](C)(O)C[C@@H](C)C(=O)[C@H](C)[C@@H](O)[C@]1(C)O |  | inactive: 5.08%
17 | O=C(Nc1cccc2c(=O)cc(-c3nn[nH]n3)oc12)c1ccc(OCCCCc2ccccc2)cc1 |  | inactive: -16.8%
18 | COCCCOc1ccnc(CS(=O)c2nc3ccccc3[nH]2)c1C (stereo not given) | inconclusive: 16.4 µM [inhibitor, single point] | 
19 | CCCc1nc(C(C)(C)O)c(C(=O)O)n1Cc1ccc(-c2ccccc2-c2nn[nH]n2)cc1 |  | inactive: 0.595%
20 | CC(C)[C@H](C(=O)Nc1ccc(C(=O)NO)cc1)c1ccccc1 | active: 2.35 µM | 
21 | O=C1CN2Cc3c(ccc(Cl)c3Cl)N=C2N1 | inconclusive: 26.4 µM [inhibitor, single point] | 
22 | CCN(CC)CCCCNc1nc2cc(Cl)c(Cl)cc2nc1-c1ccc(-c2cccs2)s1 | active: 13.2 µM | 
23 | CC(C)(F)C[C@H](N[C@@H](c1ccc(-c2ccc(S(C)(=O)=O)cc2)cc1)C(F)(F)F)C(=O)NC1(C#N)CC1 |  | inactive: 7.07%
24 | C=CC(=O)Nc1cc(NC(=O)c2ccc(C)c(NC(=O)c3ccno3)c2)cc(C(F)(F)F)c1 | inconclusive: 37.2 µM [inhibitor, single point] | 
25 | CCNC(=O)Nc1ccc(Oc2ncnc(N)c2C=NOC)cc1Cl | inconclusive: 11.8 µM [inhibitor, single point] | 
